Binding signal data for six molecules are collected here from PMC12136788.

T1: UNK ZnF1-3 (human, UniProt Q9C0B0 31-174)
T1 sequence: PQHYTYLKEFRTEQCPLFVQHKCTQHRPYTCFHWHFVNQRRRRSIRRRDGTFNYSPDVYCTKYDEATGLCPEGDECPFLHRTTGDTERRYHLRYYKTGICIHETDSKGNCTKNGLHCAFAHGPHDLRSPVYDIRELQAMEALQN

B1: 77921596_77922756_1631_CDS_ENSG00000167291_ENST00000310924|human|control|control (ssRNA)
RNA: GGGAGUUCUACAGUCCGACGAUCAGGGUUGUACACGGCGUAGUUCAGCAGGAUCCUCCUCAUGCUCUCCACAUUGGGAUUGUCUUCCCCCCGGAAGAACUGGUUGUUCCGAUCUGUCCGGACCACGUCUUUGUCCACAGUGAACAACAGAGGAUUGAGCAUCA
B2: chr2:127988141:127988142:+_ENSMUSG00000027381_ENSMUST00000110341|mus_mus|motif|central (ssRNA)
RNA: GGGAGUUCUACAGUCCGACGAUCUGUCAAAAUUCAUCAGUGCAAAACGUAAAGGAAGCCAGGGAAACUGCAAUACAAAUGCGGCAUACGCUGGGUUCUGACAUUAGUGAUGGGGACUAUACAGAGAUCAGUGCUGUUCACUAACAACAGAGGAUUGAGCAUCA
B3: chrX:98510588:98510589:+_ENSMUSG00000031302_ENSMUST00000065858|mus_hu|FALSE|FALSE (ssRNA)
RNA: GGGAGUUCUACAGUCCGACGAUCAUGUGACAACGUGAGGAGGCUGACGCAGGAUGCACCAAUGCCCGAGCCAAAGACAGUGAUCCGGCGGGGGUCUCCCCCGAAGAAGGCAAUAUUCUCGCUCACCCAGCGGAGGGCCUGGAUCAACAGAGGAUUGAGCAUCA
B4: chr11:87793471:87793472:-_ENSMUSG00000020483_ENSMUST00000020775|mus_mus|mus_mus_mus_hu_False|38_58 (ssRNA)
RNA: GGGAGUUCUACAGUCCGACGAUCUGGACUUGAAAAUAAAAGAAUAAGCUGGAUCCCCCACCCCCCCACAUUGUCAACCCUAUGCGAGAGUUUUGAAUGAUUCAUAAGAAAAUCAGCAGCUCAAACGGCAAUGACCACCCCACCCAACAGAGGAUUGAGCAUCA
B5: chr1:163117127:163117128:-_ENSG00000143248_ENST00000313961|hu_mus|hu_hu_hu_mus_False|48_108 (ssRNA)
RNA: GGGAGUUCUACAGUCCGACGAUCUGCGGGUUAUUAUGUAACUCAACUCACAGGGCAACUUUUGGAAGCCUGACCAGAUGACUACUUGAUUAACUCCUUAUAAAAUUCAGAGCGCACAAAGCGGGGCAGAGAAUCCUUCUCCAUCAACAGAGGAUUGAGCAUCA
B6: chr14:63848828:63848829:-_ENSG00000154001_ENST00000337537|hu_mus|FALSE|FALSE (ssRNA)
RNA: GGGAGUUCUACAGUCCGACGAUCACGCUGACGAUCUGACUUGUAUGUGGCUGUCAGCUCAUCAAACAUAGUGCUGUUCAUUUCCAUAAAUGCCUUCAACACGUUGUACACCAAUGCCACAAUGGCCGGAUUCCAAUGCUCUUUCAACAGAGGAUUGAGCAUCA

Some of the results follow.

The target of this experiment is T1, UNK ZnF1-3. As to the kind of experiment: nsRBNS (natural sequence RNA bind-n-seq); RBNS binding buffer (assumed for nsRBNS): 25 mM Tris pH 7.5, 150 mM KCl, 3 mM MgCl2, 0.01% Triton X-100, 500 ug/ml BSA, 20 U/ml SUPERase-In, 4 C; UNK is unkempt and MSI1 is Musashi-1; names of the RNAs are library labels; protein concentration not given here; high values mean tight binding.
On to B1, for which the binding signal was determined as 0.492 enrichment R.

Consider B2, for which the binding signal was found to be 1.24 enrichment R.

For the molecule B3, the binding signal stood at 1.29 enrichment R.

The molecule B4 had a binding signal of 2.07 enrichment R.

B5 had a binding signal of 1.18 enrichment R.

In the case of B6, the binding signal stood at 0.644 enrichment R.
